# Experimental data reported in the supplement of paper PMC8728848.
# This is one part of the list.
# B1: Epa9 (Candida glabrata), CAGL0A01386g (protein)
# chain: MGSSHHHHHHSSGLVPRGSHMDITPFAHYPRPEGCSSPPNAVSVGLHMDLYNYPYLYVKNPRTGFTNDTDSDADGETDGDSAGGIEGRAGQCWNPEYQDPNFPRYGYKKYGSFGSSDHVNGKISWDHNEFKEGCKPIMARLPTAYNYPAKITFSNFTMVLSGYFKPKSTGLYKFEIHADDFILFNFGSKNAFECCNREESIDNFGPYVAYAMWPNEADQELEVYLFEDSYYPIRLFYNNRDYHSKFMVGFYPPNTEEITYDFDGYLYMLDDTGNECKDSIRYKTVCDD
# What was measured:
# Experiment in all cases: glycan array binding signal (z-score within array); higher = stronger binding
# Conditions in all cases: glycan notation: IUPAC condensed, linker removed
# [1] = biological target: GlcNAc(a1-3)Gal(b1-4)GlcNAc
# How it was run: (§1)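 Glycan array binding is given as a within-array Z-score, which can be read as non-binding when negative. The arrays, 3228 of them, came from the Consortium for Functional Glycomics database and were retained only where the protein sequence was available. Z-scores were averaged across arrays of the same protein sequence at different concentrations or buffers and across linkers.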
# [2] = biological target: GlcNAc(a1-4)Gal(b1-3)GlcNAc
# How it was run: as §1
# [3] = biological target: GlcNAc(a1-4)Gal(b1-4)GalNAc
# How it was run: as §1
# [4] = biological target: GlcNAc(a1-4)Gal(b1-4)GlcNAc
# How it was run: as §1
# [5] = biological target: GlcNAc(a1-4)Gal(b1-4)GlcNAc(b1-3)Gal(b1-4)Glc
# How it was run: as §1
# [6] = biological target: GlcNAc(a1-4)Gal(b1-4)GlcNAc(b1-3)Gal(b1-4)GlcNAc
# How it was run: as §1
# [7] = biological target: GlcNAc(a1-4)Gal(b1-4)GlcNAc(b1-3)Gal(b1-4)GlcNAc(b1-3)Gal(b1-4)GlcNAc
# How it was run: as §1
# [8] = biological target: GlcNAc(a1-4)Gal(b1-4)GlcNAc(b1-3)Gal(b1-4)[Fuc(a1-3)]GlcNAc(b1-3)Gal(b1-4)[Fuc(a1-3)]GlcNAc
# How it was run: as §1
# [9] = biological target: GlcNAc(a1-6)Gal(b1-4)GlcNAc
# How it was run: as §1
# [10] = biological target: GlcNAc(b1-2)Gal(b1-3)GalNAc
# How it was run: as §1
# [11] = biological target: GlcNAc(b1-2)Man(a1-3)[GlcNAc(b1-2)Man(a1-6)]Man(b1-4)GlcNAc(b1-4)GlcNAc
# How it was run: as §1
# [12] = biological target: GlcNAc(b1-2)Man(a1-3)[GlcNAc(b1-2)Man(a1-6)]Man(b1-4)GlcNAc(b1-4)[Fuc(a1-6)]GlcNAc
# How it was run: as §1
# [13] = biological target: GlcNAc(b1-2)Man(a1-3)[GlcNAc(b1-4)][GlcNAc(b1-2)Man(a1-6)]Man(b1-4)GlcNAc(b1-4)GlcNAc
# How it was run: as §1
# [14] = biological target: GlcNAc(b1-2)Man(a1-3)[GlcNAc(b1-4)][GlcNAc(b1-2)Man(a1-6)]Man(b1-4)GlcNAc(b1-4)[Fuc(a1-6)]GlcNAc
# How it was run: as §1
# [15] = biological target: GlcNAc(b1-2)[GlcNAc(b1-4)]Man(a1-3)[GlcNAc(b1-2)Man(a1-6)]Man(b1-4)GlcNAc(b1-4)GlcNAc
# How it was run: as §1
# [16] = biological target: GlcNAc(b1-2)[GlcNAc(b1-4)]Man(a1-3)[GlcNAc(b1-4)][GlcNAc(b1-2)Man(a1-6)]Man(b1-4)GlcNAc(b1-4)GlcNAc
# How it was run: as §1
# [17] = biological target: GlcNAc(b1-2)[GlcNAc(b1-4)]Man(a1-3)[GlcNAc(b1-4)][GlcNAc(b1-2)[GlcNAc(b1-6)]Man(a1-6)]Man(b1-4)GlcNAc(b1-4)GlcNAc
# How it was run: as §1
# [18] = biological target: GlcNAc(b1-2)[GlcNAc(b1-4)]Man(a1-3)[GlcNAc(b1-4)][GlcNAc(b1-2)[GlcNAc(b1-6)]Man(a1-6)]Man(b1-4)GlcNAc(b1-4)[Fuc(a1-6)]GlcNAc
# How it was run: as §1
# [19] = biological target: GlcNAc(b1-2)[GlcNAc(b1-6)]Man(a1-6)[GlcNAc(b1-2)Man(a1-3)]Man(b1-4)GlcNAc(b1-4)GlcNAc
# How it was run: as §1
# [20] = biological target: GlcNAc(b1-2)[GlcNAc(b1-6)]Man(a1-6)[GlcNAc(b1-2)Man(a1-3)]Man(b1-4)GlcNAc(b1-4)[Fuc(a1-6)]GlcNAc
# How it was run: as §1
# [21] = biological target: GlcNAc(b1-2)[GlcNAc(b1-6)]Man(a1-6)[GlcNAc(b1-4)][GlcNAc(b1-2)Man(a1-3)]Man(b1-4)GlcNAc(b1-4)GlcNAc
# How it was run: as §1
# GlcNAc(b1-3)Fuc = biological target: GlcNAc(b1-3)Fuc
# How it was run: as §1
# GlcNAc(b1-3)Gal = biological target: GlcNAc(b1-3)Gal
# How it was run: as §1
# [22] = biological target: GlcNAc(b1-3)Gal(b1-3)GalNAc
# How it was run: as §1
# GlcNAc(b1-3)Gal(b1-4)Glc = biological target: GlcNAc(b1-3)Gal(b1-4)Glc
# How it was run: as §1
# [23] = biological target: GlcNAc(b1-3)Gal(b1-4)GlcNAc
# How it was run: as §1
# [24] = biological target: GlcNAc(b1-3)Gal(b1-4)GlcNAc(b1-2)Man(a1-3)[GlcNAc(b1-3)Gal(b1-4)GlcNAc(b1-2)Man(a1-6)]Man(b1-4)GlcNAc(b1-4)GlcNAc
# How it was run: as §1
# [25] = biological target: GlcNAc(b1-3)Gal(b1-4)GlcNAc(b1-2)Man(a1-3)[GlcNAc(b1-3)Gal(b1-4)GlcNAc(b1-2)Man(a1-6)]Man(b1-4)GlcNAc(b1-4)[Fuc(a1-6)]GlcNAc
# How it was run: as §1
# [26] = biological target: GlcNAc(b1-3)Gal(b1-4)GlcNAc(b1-2)[GlcNAc(b1-3)Gal(b1-4)GlcNAc(b1-6)]Man(a1-6)[GlcNAc(b1-3)Gal(b1-4)GlcNAc(b1-2)Man(a1-3)]Man(b1-4)GlcNAc(b1-4)GlcNAc
# How it was run: as §1
# [27] = biological target: GlcNAc(b1-3)Gal(b1-4)GlcNAc(b1-3)Gal(b1-4)GlcNAc
# How it was run: as §1
# [28] = biological target: GlcNAc(b1-3)Gal(b1-4)GlcNAc(b1-3)Gal(b1-4)GlcNAc(b1-2)Man(a1-3)[GlcNAc(b1-3)Gal(b1-4)GlcNAc(b1-3)Gal(b1-4)GlcNAc(b1-2)Man(a1-6)]Man(b1-4)GlcNAc(b1-4)GlcNAc
# How it was run: as §1
# [29] = biological target: GlcNAc(b1-3)Gal(b1-4)GlcNAc(b1-3)Gal(b1-4)GlcNAc(b1-2)Man(a1-3)[GlcNAc(b1-3)Gal(b1-4)GlcNAc(b1-3)Gal(b1-4)GlcNAc(b1-2)Man(a1-6)]Man(b1-4)GlcNAc(b1-4)[Fuc(a1-6)]GlcNAc
# How it was run: as §1
# [30] = biological target: GlcNAc(b1-3)Gal(b1-4)GlcNAc(b1-3)Gal(b1-4)GlcNAc(b1-2)[GlcNAc(b1-3)Gal(b1-4)GlcNAc(b1-3)Gal(b1-4)GlcNAc(b1-6)]Man(a1-6)[GlcNAc(b1-3)Gal(b1-4)GlcNAc(b1-3)Gal(b1-4)GlcNAc(b1-2)Man(a1-3)]Man(b1-4)GlcNAc(b1-4)[Fuc(a1-6)]GlcNAc
# How it was run: as §1
# [31] = biological target: GlcNAc(b1-3)Gal(b1-4)GlcNAc(b1-3)Gal(b1-4)GlcNAc(b1-3)Gal(b1-4)GlcNAc(b1-2)Man(a1-3)[GlcNAc(b1-3)Gal(b1-4)GlcNAc(b1-3)Gal(b1-4)GlcNAc(b1-3)Gal(b1-4)GlcNAc(b1-2)Man(a1-6)]Man(b1-4)GlcNAc(b1-4)GlcNAc
# How it was run: as §1
# [32] = biological target: GlcNAc(b1-3)Gal(b1-4)GlcNAc(b1-3)Gal(b1-4)GlcNAc(b1-3)Gal(b1-4)GlcNAc(b1-2)Man(a1-3)[GlcNAc(b1-3)Gal(b1-4)GlcNAc(b1-3)Gal(b1-4)GlcNAc(b1-3)Gal(b1-4)GlcNAc(b1-2)Man(a1-6)]Man(b1-4)GlcNAc(b1-4)[Fuc(a1-6)]GlcNAc
# How it was run: as §1
# [33] = biological target: GlcNAc(b1-3)Gal(b1-4)GlcNAc(b1-3)Gal(b1-4)GlcNAc(b1-3)Gal(b1-4)GlcNAc(b1-2)[GlcNAc(b1-3)Gal(b1-4)GlcNAc(b1-3)Gal(b1-4)GlcNAc(b1-3)Gal(b1-4)GlcNAc(b1-6)]Man(a1-6)[GlcNAc(b1-3)Gal(b1-4)GlcNAc(b1-3)Gal(b1-4)GlcNAc(b1-3)Gal(b1-4)GlcNAc(b1-2)Man(a1-3)]Man(b1-4)GlcNAc(b1-4)[Fuc(a1-6)]GlcNAc
# How it was run: as §1
# [34] = biological target: GlcNAc(b1-3)Gal(b1-4)GlcNAc(b1-3)Gal(b1-4)GlcNAc(b1-3)Gal(b1-4)GlcNAc(b1-3)Gal(b1-4)GlcNAc(b1-2)Man(a1-3)[GlcNAc(b1-3)Gal(b1-4)GlcNAc(b1-3)Gal(b1-4)GlcNAc(b1-3)Gal(b1-4)GlcNAc(b1-3)Gal(b1-4)GlcNAc(b1-2)Man(a1-6)]Man(b1-4)GlcNAc(b1-4)GlcNAc
# How it was run: as §1
# [35] = biological target: GlcNAc(b1-3)Gal(b1-4)GlcNAc(b1-3)Gal(b1-4)GlcNAc(b1-3)Gal(b1-4)GlcNAc(b1-3)Gal(b1-4)GlcNAc(b1-2)Man(a1-3)[GlcNAc(b1-3)Gal(b1-4)GlcNAc(b1-3)Gal(b1-4)GlcNAc(b1-3)Gal(b1-4)GlcNAc(b1-3)Gal(b1-4)GlcNAc(b1-2)Man(a1-6)]Man(b1-4)GlcNAc(b1-4)[Fuc(a1-6)]GlcNAc
# How it was run: as §1
binder,measurement,setting,value
B1,glycan array binding signal (z-score),[1],-0.472
same,glycan array binding signal (z-score),[2],-0.492
same,glycan array binding signal (z-score),[3],-0.515
same,glycan array binding signal (z-score),[4],-0.453
same,glycan array binding signal (z-score),[5],-0.565
same,glycan array binding signal (z-score),[6],-0.445
same,glycan array binding signal (z-score),[7],-0.462
same,glycan array binding signal (z-score),[8],-0.409
same,glycan array binding signal (z-score),[9],1.4
same,glycan array binding signal (z-score),[10],-0.446
same,glycan array binding signal (z-score),[11],-0.48
same,glycan array binding signal (z-score),[12],-0.404
same,glycan array binding signal (z-score),[13],-0.485
same,glycan array binding signal (z-score),[14],-0.459
same,glycan array binding signal (z-score),[15],-0.372
same,glycan array binding signal (z-score),[16],-0.47
same,glycan array binding signal (z-score),[17],-0.501
same,glycan array binding signal (z-score),[18],-0.473
same,glycan array binding signal (z-score),[19],-0.462
same,glycan array binding signal (z-score),[20],-0.444
same,glycan array binding signal (z-score),[21],-0.467
same,glycan array binding signal (z-score),GlcNAc(b1-3)Fuc,-0.463
same,glycan array binding signal (z-score),GlcNAc(b1-3)Gal,-0.471
same,glycan array binding signal (z-score),[22],-0.414
same,glycan array binding signal (z-score),GlcNAc(b1-3)Gal(b1-4)Glc,-0.43
same,glycan array binding signal (z-score),[23],-0.451
same,glycan array binding signal (z-score),[24],-0.47
same,glycan array binding signal (z-score),[25],-0.4
same,glycan array binding signal (z-score),[26],-0.373
same,glycan array binding signal (z-score),[27],-0.392
same,glycan array binding signal (z-score),[28],-0.371
same,glycan array binding signal (z-score),[29],-0.415
same,glycan array binding signal (z-score),[30],-0.404
same,glycan array binding signal (z-score),[31],-0.416
same,glycan array binding signal (z-score),[32],-0.393
same,glycan array binding signal (z-score),[33],-0.41
same,glycan array binding signal (z-score),[34],-0.276
same,glycan array binding signal (z-score),[35],0.061
